In assay [1] the target is RGS1 (luciferase complementation fusion) (Arabidopsis thaliana) (UniProt Q8H1F2). Nature of the assay: split reporter; luciferase complementation; Nluc and Cluc constructs co-expressed in N. benthamiana leaves by Agrobacterium; leaf disks after 2 days with 1 mM luciferin; with or without flg22, elf18 or chitin.
In assay [2] the target is T1, RGS1CT (recombinant, GST pull-down) (Arabidopsis thaliana) (UniProt Q8H1F2).
T1 sequence: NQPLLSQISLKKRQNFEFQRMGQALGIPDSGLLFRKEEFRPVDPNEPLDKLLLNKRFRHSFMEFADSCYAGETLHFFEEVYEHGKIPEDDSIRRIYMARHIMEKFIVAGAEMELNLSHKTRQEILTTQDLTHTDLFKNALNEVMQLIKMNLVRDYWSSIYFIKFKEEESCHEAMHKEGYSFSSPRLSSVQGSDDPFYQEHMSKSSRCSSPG
Kind of assay: pull-down; GST pull-down; 5 μg GST- and HIS-tagged proteins with glutathione agarose beads in 25 mM Tris-HCl, 100 mM NaCl, 1 mM DTT, pH 7.5, 1 h at 4 °C; washed with 300 mM NaCl; anti-HIS immunoblot; both purified.

Assay [3] deals with T2, GPA1 (luciferase complementation fusion) (Arabidopsis thaliana), P18064.
T2 chain: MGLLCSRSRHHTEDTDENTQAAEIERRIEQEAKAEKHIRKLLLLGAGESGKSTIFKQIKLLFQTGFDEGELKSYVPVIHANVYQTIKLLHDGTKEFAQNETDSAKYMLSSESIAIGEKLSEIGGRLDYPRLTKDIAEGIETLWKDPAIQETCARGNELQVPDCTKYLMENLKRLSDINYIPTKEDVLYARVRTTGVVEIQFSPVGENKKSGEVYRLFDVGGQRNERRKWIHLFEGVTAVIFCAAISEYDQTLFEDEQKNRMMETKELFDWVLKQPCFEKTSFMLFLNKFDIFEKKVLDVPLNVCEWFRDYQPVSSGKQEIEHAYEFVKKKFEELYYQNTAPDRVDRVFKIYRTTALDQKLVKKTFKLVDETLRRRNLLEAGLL
Kind of assay: split reporter; luciferase complementation; Nluc and Cluc constructs co-expressed in N. benthamiana leaves by Agrobacterium; leaf disks after 2 days with 1 mM luciferin; with or without flg22, elf18 or chitin. The settings on record: remark: other sources report otherwise.

Assay [4] has as its target T3, GPA1-FLAG (Arabidopsis thaliana), P18064.
T3 chain: T2 chain
Kind of assay: co-IP; Arabidopsis protoplasts (Col-0 or rgs1-2) transfected, with or without 1 μM flg22 for 5 min, with or without co-expressed RGS1 variants; extraction buffer 50 mM HEPES pH 7.5, 150 mM KCl, 10 mM EDTA, 0.5% Triton X-100, 1 mM DTT; anti-FLAG M2 agarose, eluted with 3×FLAG peptide; anti-HA and anti-FLAG immunoblots. The settings on record: remark: other sources report otherwise.

In assay [5] the target is T4, GPA1-FLAG (Arabidopsis thaliana) (UniProt P18064).
T4 sequence: T2 chain
Nature of the assay: co-IP; rgs1-2 mutant protoplasts without RGS1 transfected; anti-FLAG IP.

For assay [6], the target named is T5, XLG2 (luciferase complementation fusion) (Arabidopsis thaliana) (UniProt C6KIE6).
T5 sequence: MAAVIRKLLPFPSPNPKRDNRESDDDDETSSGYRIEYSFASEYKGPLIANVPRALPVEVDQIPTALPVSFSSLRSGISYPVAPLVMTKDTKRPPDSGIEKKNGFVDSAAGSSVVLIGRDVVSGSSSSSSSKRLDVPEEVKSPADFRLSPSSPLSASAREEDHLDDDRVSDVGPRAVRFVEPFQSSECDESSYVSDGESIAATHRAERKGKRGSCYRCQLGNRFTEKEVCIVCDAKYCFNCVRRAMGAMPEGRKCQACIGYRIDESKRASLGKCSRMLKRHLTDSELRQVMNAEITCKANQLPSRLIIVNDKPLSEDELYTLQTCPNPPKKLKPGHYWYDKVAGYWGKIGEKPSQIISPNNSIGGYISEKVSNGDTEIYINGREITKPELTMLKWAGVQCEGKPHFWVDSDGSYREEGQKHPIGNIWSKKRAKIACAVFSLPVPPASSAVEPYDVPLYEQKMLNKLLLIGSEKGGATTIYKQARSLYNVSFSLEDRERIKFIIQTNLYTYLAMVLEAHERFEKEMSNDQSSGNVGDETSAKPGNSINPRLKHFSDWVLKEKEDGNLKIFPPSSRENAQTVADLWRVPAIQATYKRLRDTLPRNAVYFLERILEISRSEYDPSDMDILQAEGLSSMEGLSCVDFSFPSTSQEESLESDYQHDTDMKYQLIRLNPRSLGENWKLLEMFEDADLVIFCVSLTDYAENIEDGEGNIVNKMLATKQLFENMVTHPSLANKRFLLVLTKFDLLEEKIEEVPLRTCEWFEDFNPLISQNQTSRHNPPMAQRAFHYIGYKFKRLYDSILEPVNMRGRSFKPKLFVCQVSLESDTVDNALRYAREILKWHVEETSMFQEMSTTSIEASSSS
Nature of the assay: split reporter; luciferase complementation; Nluc and Cluc constructs co-expressed in N. benthamiana leaves by Agrobacterium; leaf disks after 2 days with 1 mM luciferin; with or without flg22, elf18 or chitin.

These are yes or no findings as the source states them, for the method shown. For some of these results: Binding seen in cells or lysates may run through a third protein. Some binding calls cover weakened binding; strength is not graded here. Tags and fused reporters may be left off the sequences shown.

B1: CERK1 (luciferase complementation fusion) (receptor, UniProt A8R7E6 24-617)
chain: KCRTSCPLALASYYLENGTTLSVINQNLNSSIAPYDQINFDPILRYNSNIKDKDRIQMGSRVLVPFPCECQPGDFLGHNFSYSVRQEDTYERVAISNYANLTTMESLQARNPFPATNIPLSATLNVLVNCSCGDESVSKDFGLFVTYPLRPEDSLSSIARSSGVSADILQRYNPGVNFNSGNGIVYVPGRDPNGAFPPFKSSKQDGVGAGVIAGIVIGVIVALLLILFIVYYAYRKNKSKGDSFSSSIPLSTKADHASSTSLQSGGLGGAGVSPGIAAISVDKSVEFSLEELAKATDNFNLSFKIGQGGFGAVYYAELRGEKAAIKKMDMEASKQFLAELKVLTRVHHVNLVRLIGYCVEGSLFLVYEYVENGNLGQHLHGSGREPLPWTKRVQIALDSARGLEYIHEHTVPVYVHRDIKSANILIDQKFRAKVADFGLTKLTEVGGSATRGAMGTFGYMAPETVYGEVSAKVDVYAFGVVLYELISAKGAVVKMTEAVGEFRGLVGVFEESFKETDKEEALRKIIDPRLGDSYPFDSVYKMAELGKACTQENAQLRPSMRYIVVALSTLFSSTGNWDVGNFQNEDLVSLMSGR
With B1, the binding result in assay [1] was “no binding”.

B2: LYK5 kinase domain (LYK5KD) (domain or fragment, UniProt O22808 351-643)
chain: KSAIESLTLYRFNDLQSATSNFSDENRIKGSVYRATINGDDAAVKVIKGDVSSSEINLLKKLNHSNIIRLSGFCIREGTSYLVFEYSENGSISDWLHSSGKKSLTWKQRVEIARDVAEALDYLHNYITPPHIHKNLESTNILLDSNFRAKIANFGVARILDEGDLDLQLTRHVEGTQGYLAPEYVENGVITSKLDVFAFGVAVLELLSGREAVTIHKKKEGEEEVEMLCKVINSVLGGENVREKLKEFMDPSLGNEYPLELAYTMAQLAKSCVATDLNSRPSVTQVLTTLSMI
As for B2, the binding entry in assay [2] is recorded as “binds”.

B3: AGB1 (luciferase complementation fusion), P49177 1-377 (protein)
chain: MSVSELKERHAVATETVNNLRDQLRQRRLQLLDTDVARYSAAQGRTRVSFGATDLVCCRTLQGHTGKVYSLDWTPERNRIVSASQDGRLIVWNALTSQKTHAIKLPCAWVMTCAFSPNGQSVACGGLDSVCSIFSLSSTADKDGTVPVSRMLTGHRGYVSCCQYVPNEDAHLITSSGDQTCILWDVTTGLKTSVFGGEFQSGHTADVLSVSISGSNPNWFISGSCDSTARLWDTRAASRAVRTFHGHEGDVNTVKFFPDGYRFGTGSDDGTCRLYDIRTGHQLQVYQPHGDGENGPVTSIAFSVSGRLLFAGYASNNTCYVWDTLLGEVVLDLGLQQDSHRNRISCLGLSADGSALCTGSWDSNLKIWAFGGHRRVI
As to B3, in assay [3], the binding result is “binds”.

B4: AGB1-HA, P49177 1-377 (protein)
chain: B3 chain
With B4, the binding result in assay [4] was “binds”.

B5: AGB1-HA (protein, UniProt P49177 1-377)
chain: B3 chain
As to B5, the binding result in assay [5] is “binds weakly”.

B6: AGB1 (luciferase complementation fusion) (protein, UniProt P49177 1-377)
chain: B3 chain
For the molecule B6, the binding result in assay [6] was “binds”.

B7: LYK5 (luciferase complementation fusion) (receptor, UniProt O22808 27-664)
chain: QQPYVNNHQLACEVRVYDNITNGFTCNGPPSCRSYLTFWSQPPYNTADSIAKLLNVSAAEIQSINNLPTATTRIPTRELVVIPANCSCSSSSGGFYQHNATYNLSGNRGDETYFSVANDTYQALSTCQAMMSQNRYGERQLTPGLNLLVPLRCACPTAKQTTAGFKYLLTYLVAMGDSISGIAEMFNSTSAAITEGNELTSDNIFFFTPVLVPLTTEPTKIVISPSPPPPPVVATPPQTPVDPPGSSSSHKWIYIGIGIGAGLLLLLSILALCFYKRRSKKKSLPSSLPEENKLFDSSTKQSIPTTTTTQWSIDLSNSSEAFGLKSAIESLTLYRFNDLQSATSNFSDENRIKGSVYRATINGDDAAVKVIKGDVSSSEINLLKKLNHSNIIRLSGFCIREGTSYLVFEYSENGSISDWLHSSGKKSLTWKQRVEIARDVAEALDYLHNYITPPHIHKNLESTNILLDSNFRAKIANFGVARILDEGDLDLQLTRHVEGTQGYLAPEYVENGVITSKLDVFAFGVAVLELLSGREAVTIHKKKEGEEEVEMLCKVINSVLGGENVREKLKEFMDPSLGNEYPLELAYTMAQLAKSCVATDLNSRPSVTQVLTTLSMIVSSSIDWEPSDDLLRSGSLGN
For B7, in assay [1], the binding entry is listed as “binds”.

These data come from paper PMC5951851.
